Reference: PubChem BioAssay AID1345082 (National Center for Advancing Translational Sciences (NCATS), 2018)
Screen size: about 94,000 compounds; about 4,000 (4.3%) were called active. This list was built around the results that the source calls inconclusive (neither active nor inactive); the mix of calls is not that of the screen. The call rests on the fitted dose curve; in most records, active means well fitted inhibition curve with a large enough effect; inconclusive means small, poorly fitted or top-dose-only effect; inactive means no such curve, though single readings can be large or run the other way. Where the call is inconclusive, the potency comes from a doubtful curve fit.

test: Cytotoxic Profiling in NIH 3T3 Cell Line of Diverse Libraries Using Quantitative High-Throughput Screening; conditions: NIH 3T3 viability, CellTiter-Glo ATP luminescence, 48-72 h; series mostly up to 96.7 µM; further: nearly all actives have a fitted effect of over 55% in size
Method in brief: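 Mouse fibroblast NIH 3T3 cells, 400 per well, received compound via pintool and were incubated for 48 or 72 hr prior to CellTiter-Glo ATP luminescence measurement.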
Potency means the concentration at half of the fitted maximal effect; tags describe the fitted curve by direction and shape.

SMILES	Potency
Cc1ccc(C(=O)N2CCCC(n3cc(-c4nc(C(C)C)no4)nn3)C2)cc1F (centres undefined)	inconclusive: 39.8 µM [inhibitor, partial curve, poor fit]
CCn1cc(C(=O)N2CCOc3c(O)cc(-c4ccccc4C)cc3C2)cn1	inconclusive: 50.1 µM [inhibitor, partial curve, poor fit]
O=C(c1ccc(-c2cccs2)cc1)N1CCC(C(=O)N2CCC(c3ccccc3)CC2)CC1	inconclusive: 17.8 µM [inhibitor, partial curve, poor fit]
O=C(C[C@@H]1CCNC[C@@H]1Cc1cc(CN2CCOCC2)on1)N1CCC(Cc2ccccc2)CC1	inactive
CN(C)S(=O)(=O)N1CCCC1C(=O)Nc1ccc(-c2cccc(F)c2)cc1 (centres undefined)	inconclusive: 89.1 µM [inhibitor, single point]
COc1ccccc1Nc1ccnc(N2CCC(C(=O)NC(C)C)CC2)n1	inconclusive: 79.4 µM [inhibitor, partial curve]
CCCN(CC1CC1)C(=O)C1CCCCC(=O)N1Cc1cccc(OC)c1 (centres undefined)	inactive
C[C@]1(CO)[C@H]2Cc3sc(-c4ccccc4)nc3[C@@H](CC(=O)N3CCOCC3)[C@]2(C)CC[C@H]1O	inconclusive: 28.2 µM [inhibitor, full curve, poor fit]
CCNC(=O)N1CCC(Cc2ccc(C(=O)NCCc3c[nH]c4ccccc34)cc2)CC1	active: 17.8 µM
c1ccc(-c2noc(-c3cncnc3N3CCN(c4ccccc4)CC3)n2)cc1	inconclusive: 35.5 µM [inhibitor, partial curve, poor fit]
CCCc1noc(-c2ccn3c(CNC(=O)Cc4ccccc4Cl)nnc3c2)n1	inactive
O=C(NCCNC(=O)C1CCCC1)c1cccc(-c2ccc(C(F)(F)F)cc2)c1	inactive
O=C(Nc1ccc(F)cc1)C1CCCN(Cc2cccc(-c3ccc(F)cc3F)c2)C1 (centres undefined)	inconclusive: 44.7 µM [inhibitor, partial curve, poor fit]
COCCCn1c(=O)c(C(=O)N2CCN(C(=O)COC)CC2)nc2cccnc21	inactive
CCCc1nc(C2CC(=O)N(C3CCCCC3)C2)no1 (centres undefined)	inactive
CC(C)c1ccc(CN2CCC3(CC2)OC(=O)N(Cc2ncccn2)C3(C)c2ccccc2)cc1 (centres undefined)	inconclusive: 44.7 µM [inhibitor, partial curve, poor fit]
COc1ccc(-n2nc(C3CCN(Cc4ccc(C#N)cc4)CC3)[nH]c2=O)cc1	inactive
COc1ccc(N2CCN(c3nc(C(=O)NCc4ccco4)cs3)CC2)cc1	inconclusive: 14.1 µM [inhibitor, full curve, poor fit]
O=C(NCc1nnc2n1C(C(=O)NCc1cccnc1)CC2)c1cccnc1 (centres undefined)	inactive
CCc1ccc(NC(=O)Cn2ccn3nc4c(c3c2=O)CCCCC4)cc1	inactive
COc1ccc(-c2cnc3[nH]cc(CC(=O)Nc4cccc(N(C)C)c4)c3c2)cc1	inconclusive: 11.2 µM [inhibitor, full curve, poor fit]
Cc1nn(-c2ccccc2)c2c1C(C1CC1)N(C1CCCN([S+](=O)([O-])c3cccc(C(F)(F)F)c3)C1)C2=O (centres undefined)	inactive

SMILES	Potency
O=C(Nc1ccc([C@H]2OCC(=O)N(Cc3ccc(F)cc3)[C@@H]2CO)cc1)c1cccnc1	inconclusive: 89.1 µM [inhibitor, single point]
Cc1ccc(C2c3cc(OCc4nc(C(=O)NC(C)C)co4)ccc3CCN2C(=O)C2CC2)cc1 (centres undefined)	inconclusive: 44.7 µM [inhibitor, partial curve, poor fit]
O=C(Cc1ccccn1)N1CC(COc2ccccc2)C2(C1)CN(c1ccccc1)C2 (centres undefined)	inconclusive: 100 µM [inhibitor, single point]
COCC1CN(C)CC12CCN(S(=O)(=O)c1cccs1)CC2 (centres undefined)	inconclusive: 79.4 µM [inhibitor, partial curve, poor fit]
COc1ccc(OCc2nc3c(n2Cc2ccccc2)C(=O)N(CC2CC2)CCN3)cc1OC	inconclusive: 44.7 µM [inhibitor, partial curve]
Nc1nc(C2CC(N)C2)cc(N2CCCN(Cc3cccs3)CC2)n1 (centres undefined)	inconclusive: 44.7 µM [inhibitor, partial curve, poor fit]
CCOC(=O)[C@H]1CN(C(=O)Cc2ccc(OC)cc2)[C@]2(C)C(=O)N(CC(=O)N(C)C)c3ccccc3[C@H]12	inconclusive: 70.8 µM [inhibitor, partial curve, poor fit]
O=C1CCN(C(=O)C2CC=CC2)CCCC(c2nc(-c3cccnc3)no2)CCN1 (centres undefined)	inactive
Cc1ccc(NC(=O)N2CC(N(Cc3cccnc3)S(C)(=O)=O)C2)cc1C	inactive
O=C(NCc1ccc2c(c1)OCO2)c1ccc2c(c1)N(C(=O)c1ccc(F)cc1)CC2	inconclusive: 44.7 µM [inhibitor, partial curve, poor fit]
CC1=C[C@@H](CNC(=O)C2CCCCC2)[C@H](C(C)C)C[C@H]1CC(=O)N1CCN(c2ccccn2)CC1	inconclusive: 50.1 µM [inhibitor, partial curve, poor fit]
CN1C[C@@H](NC(=O)Nc2ccc(F)cc2F)C[C@H]1c1nc(-c2ccc(Cl)cc2)no1	inactive
Cc1cnc(CCNS(=O)(=O)c2ccc(C#N)cc2)n1C1CCC1	inactive
CC(=O)N1CCCC1C(=O)N1CCCC(c2nc3ncccc3[nH]2)C1 (centres undefined)	inactive
CCOC(=O)Cc1csc(NC(=O)Cn2nc3c(cc2=O)CCCC3)n1	inactive
CN1[C@@H](CCC(=O)NCc2ccccc2)CNC(=O)[C@@H]2[C@H]1CCN2Cc1ccc(C(F)(F)F)cc1	inconclusive: 50.1 µM [inhibitor, partial curve, poor fit]
c1cc(-c2ncon2)cc(N2CCc3nc[nH]c3C2)n1	inactive
COc1ccccc1CNC(=O)CNC(=O)c1cccc(-c2ccsc2)c1	inconclusive: 50.1 µM [inhibitor, partial curve, poor fit]
COc1ccc2[nH]c3c(c2c1)CCNC31CCN(C(=O)Cc2ccccc2)CC1	inactive
CCCN(CC1CC1)C(=O)c1ccc2c(c1)C(O)CCCCCN2C (centres undefined)	inconclusive: 50.1 µM [inhibitor, partial curve, poor fit]
Cn1nc(-c2ccc3c(c2)OCCO3)nc1N1CCCCC1	inconclusive: 44.7 µM [inhibitor, partial curve, poor fit]
COc1cc(OC)cc(C(=O)N2CCN(c3cc(-c4ccc(Cl)cc4)[nH]n3)CC2)c1	active: 35.5 µM

SMILES	Potency
COC[C@@H]1CN(C(=O)c2ccccn2)C[C@H]1c1ccccn1	inactive
CCn1cc(CN2CC(Oc3ccc(-c4noc(-c5cccnc5)n4)cc3)C2)cn1	inconclusive: 50.1 µM [inhibitor, partial curve, poor fit]
Cn1ncc2c(C(=O)NCc3cccc(C(F)(F)F)c3)cc(-c3ccc([S+](C)(=O)[O-])cc3)nc21	inactive
CCc1ccc(C(=O)NC2CCN(c3cc(-c4cccs4)[nH]n3)C2)cc1 (centres undefined)	inconclusive: 50.1 µM [inhibitor, partial curve, poor fit]
c1ccc(CCCc2noc(-c3ccc(N4CCOCC4)nc3)n2)cc1	inactive
COc1ccc(-c2nc3cc(C(=O)N4CCOCC4)ccc3o2)cn1	inactive
CC(C)N1C(=O)OCC12CCN(Cc1ccc3c(c1)CCO3)C2 (centres undefined)	inconclusive: 39.8 µM [inhibitor, partial curve, poor fit]
CC(=O)NC1(C)CCN(Cc2cnc(-c3ccccc3OCc3ccccc3)s2)CC1	inconclusive: 56.2 µM [inhibitor, partial curve, poor fit]
Cc1nn(-c2ccc(C(C)(C)C)cc2)c(C)c1[C@@H]1C=C[C@@H](NC(=O)c2cccs2)C1	inconclusive: 20 µM [inhibitor, full curve]
Cc1cn2nc(C(=O)Nc3cccc(F)c3C)cc2c(N2CCCC2)n1	inconclusive: 79.4 µM [inhibitor, partial curve, poor fit]
C[S+](=O)([O-])N1CCC2(CC1)CC(Cc1ccccc1)=NO2	inconclusive: 89.1 µM [inhibitor, single point]
COc1ccc(C(=O)NCCNC(=O)c2cccc(-c3ccc(SC)cc3)c2)cc1	inconclusive: 44.7 µM [inhibitor, partial curve, poor fit]
COc1cccc(S(=O)(=O)N2CCCN(S(=O)(=O)c3ccccc3)CCC(=O)NCC2)c1	inactive
COC(=O)[C@@H]1Cc2ncn(Cc3ccc(Cl)cc3)c2CN1Cc1cccc(C#N)c1	inconclusive: 56.2 µM [inhibitor, partial curve, poor fit]
O=[S+]([O-])(NC1CCCN(c2ccc3nnc(C4CC4)n3n2)C1)c1cccs1 (centres undefined)	inconclusive: 50.1 µM [inhibitor, partial curve, poor fit]
COc1ccc2nc3n(c2c1)[C@@H](CNS(=O)(=O)c1ccccc1)COC3	inconclusive: 79.4 µM [inhibitor, partial curve, poor fit]
COc1cccc(CC(=O)N2CCC(CCn3c(C)cnc3-c3cccnc3)CC2)c1	inconclusive: 50.1 µM [inhibitor, partial curve, poor fit]
O=C(NC1CCCC1)N1CCCC(Cc2nncn2Cc2ccccc2)C1 (centres undefined)	inactive
Cc1ccccc1CN1CCc2nc(C(=O)NCc3ccncc3)oc2CC1	inconclusive: 35.5 µM [inhibitor, partial curve, poor fit]
Cc1noc(C)c1Cc1ccc(C(=O)N2CCC(c3nc(C(=O)N4CCCC4)c(C)o3)CC2)o1	inconclusive: 44.7 µM [inhibitor, partial curve, poor fit]
